Data as given in PubChem BioAssay AID2546 (National Center for Advancing Translational Sciences (NCATS), 2010).
The campaign covered roughly 310,000 compounds. About 11,000 (3.5%) were called active. Inconclusive results, whose numbers are uncertain, are shown with a selection of clear calls. Calls follow the shape of the dose curve; as a rule, active = well fitted inhibition curve with a large enough effect; inconclusive = small, poorly fitted or top-dose-only effect, or effect the other way; inactive = flat fitted curve, though single readings scatter. No potency is given beside an inconclusive call; the fits are too rough.

Assay: VP16 counterscreen qHTS for inhibitors of ROR gamma transcriptional activity;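 also: Gal4-VP16 expression switched on by copper sulfate through the metallothionein promoter; nearly all actives have a fitted effect of over 50% in size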
Settings: Drosophila S2 Gal4-VP16 UAS-luciferase, luminescence, 20 h; activity, negative = inhibition: at 53.6 µM (top of the series)
% is scaled to controls: 0 for no effect and ±100 for the full control effect; potency is read from the fitted curve at half-maximal effect; tags tell the direction and shape of the fitted curve.

Row | SMILES | Potency | activity, negative = inhibition
1 | CCN(CC1COc2ccccc2O1)C(=S)NC1CC2CCC1C2 (stereo not drawn) | inconclusive [inhibitor, single point] | 
2 | CCc1ccc(CN(C)C(=O)c2ccc3c(=O)n4c(nc3c2)CCC4)cc1 |  | inactive: -14.6%
3 | Cc1ccc(N/C(N)=N/c2nc(C)cc(N3CCCCC3)n2)c(C)c1 | inconclusive [inhibitor, single point] | 
4 | S=C(NCCc1ccccc1)Nc1ccccc1 | active: 17.8 µM | 
5 | C=CCNc1nc(NCc2ccccc2)nc(OCC)n1 | inconclusive [inhibitor, single point] | 
6 | Nc1nc(Nc2ccccc2F)nc(NCc2ccco2)c1[N+](=O)[O-] | inconclusive [activator, full curve] | 
7 | O[C@@H]1COC(Nc2ccc(N=Nc3ccccc3)cc2)C[C@@H]1O (stereo partly drawn) | inconclusive [activator, partial curve] | 
8 | CC1=NC(=O)C(N=Nc2cccc(O)c2)N1c1ccccc1 (stereo not drawn) | inconclusive [inhibitor, partial curve] | 
9 | Cc1cc(O)c(-c2cc(C(=O)Nc3ccc(S(=O)(=O)N4CCOCC4)cc3)[nH]n2)cc1C | inconclusive [inhibitor, single point] | 
10 | CCN(CC)S(=O)(=O)c1ccc(NC(=S)NC(=O)CC(C)C)cc1 | inconclusive [inhibitor, single point] | 
11 | COc1cccc([C@@H]2Oc3ccc(OC)cc3C[C@H]2OC(=O)N[C@H]2CCCc3ccccc32)c1 |  | inactive: -5.39%
12 | CC(C)Cn1c(=O)c(C(=O)NCc2ccc3c(c2)OCO3)c(O)c2ccccc21 | inconclusive [inhibitor, partial curve] | 
13 | CCCCC(O)(CCCC)C(=O)NN(C(=O)CCl)c1ccccc1 | inconclusive [inhibitor, single point] | 
14 | Cc1cc(C)n(CCC(=O)N/N=C/c2ccccc2O)n1 | active: 1.26 µM | 
15 | COc1cc(O)c2c(=O)cc(-c3ccc(OC)c(-c4c(O)cc(O)c5c(=O)cc(-c6ccc(O)cc6)oc45)c3)oc2c1 | inconclusive [inhibitor, single point] | 
16 | Cc1c(C(=O)N/N=C/c2ccoc2)cccc1[N+](=O)[O-] | inconclusive [inhibitor, partial curve, poor fit] | 
17 | S=c1[nH]c2cnccc2n1Cc1ccccc1 |  | inactive: 14%
18 | CCN(CCCNC(=O)Cn1ncc2c(=O)oc3ccccc3c21)c1cccc(C)c1 | inconclusive [inhibitor, single point] | 
19 | C=CCN=c1scc(-c2ccccc2)n1/N=C/c1ccccn1 | active: 10 µM | 
20 | CCOc1ccccc1NC(=O)N1CCC(NC(=O)C2CCCCC2)CC1 |  | inactive: 4.86%
21 | Cc1c(-c2ccccn2)c(=O)[nH]n1-c1ccc(F)cc1 | inconclusive [inhibitor, partial curve, poor fit] | 
22 | Cc1ccc(C)c(NC(=S)N(CCc2ccncc2)C(C)C)c1 |  | inactive: -8.17%
23 | COc1ccc(C(=O)NCC(c2ccc(F)cc2)N2CCOCC2)cc1S(=O)(=O)N1CCCC1 (stereo not drawn) |  | inactive: -10.6%
24 | CCCCCCCCCCCCCCCCCC(=O)OC[C@@H](O)[C@H]1OC[C@H](O)[C@H]1O |  | inactive: 3.87%

Row | SMILES | Potency | activity, negative = inhibition
25 | CCOC(=O)c1ccccc1NS(=O)(=O)c1ccc(C)cc1 | inconclusive [inhibitor, single point] | 
26 | CN(C)c1nc(-c2ccc3c(c2)OCO3)nc2ccccc12 |  | inactive: -1.98%
27 | Oc1ccc2ccccc2c1/C=N/Nc1nnc(-c2ncc[nH]2)c2ccccc12 | active: 0.251 µM | 
28 | CC(=C/c1ccccc1)/C=N/NC(=O)c1cnccn1 | inconclusive [inhibitor, full curve, poor fit] | 
29 | COc1cc2c(=O)n(CCC(=O)NCC3CCCO3)c(=O)n(CC(=O)c3ccc(Cl)cc3)c2cc1OC (stereo not drawn) |  | inactive: -13.4%
30 | Nc1nc(-c2ccccc2)c(-c2ccc([N+](=O)[O-])cc2)s1 |  | inactive: -0.418%
31 | NC(=O)c1cc2ccncc2c2ccccc12 | inconclusive [inhibitor, single point] | 
32 | COc1ccc([N+](=O)[O-])cc1NC(=O)Nc1cccc(Cl)c1 | inconclusive [inhibitor, single point] | 
33 | CCOC(=O)N1CCN(Cc2ccccc2Cl)CC1 |  | inactive: 3.86%
34 | Cc1[nH]c2ccccc2c1C(=O)CCl | active: 11.2 µM | 
35 | BrCCOCCOc1ccc2ccccc2c1 | inconclusive [inhibitor, single point] | 
36 | COc1ccc(C2CC2/C(=N/O)c2ccccn2)cc1 (stereo not drawn) | active: 3.16 µM | 
37 | CCOC(=O)N1CCN(C(=O)c2ccc(CS(=O)(=O)c3ccccc3OC)o2)CC1 | inconclusive [inhibitor, single point] | 
38 | Brc1ccc(-c2csc(Nc3nc(-c4ccc(Br)cc4)cs3)n2)cc1 | inconclusive [inhibitor, single point] | 
39 | COCCn1c(=O)c(C)nc2cnc(Nc3cccc(OC)c3)nc21 |  | inactive: 2.49%
40 | C=CCn1c(C)cc(C(=O)Cn2nc(C(=O)O)c3ccccc3c2=O)c1C | inconclusive [inhibitor, partial curve, poor fit] | 
41 | Cc1cc(N2CCOCC2)nc(NCc2ccccc2)n1 | inconclusive [inhibitor, single point] | 
42 | Cc1oc(=O)c(NC(=O)c2cccc(Cl)c2)cc1C(=O)c1ccccc1 | active: 5.01 µM | 
43 | CCOC(=O)Cn1nc(-c2ccc(F)cc2)oc1=O | inconclusive [inhibitor, single point] | 
44 | O=C(CN1CCCC1)N/N=C/c1c(O)ccc2ccccc12 | active: 3.16 µM | 
45 | CC(C)C(=O)SCCCCCCC(=O)Nc1nc(-c2ccccc2)cs1 | inconclusive [inhibitor, single point] | 
46 | Cc1nn(CCOc2ccccc2)c(=O)n1-c1ccccc1F | inconclusive [inhibitor, single point] | 
47 | O=C(CC(c1ccco1)S(=O)(=O)c1ccccc1)c1ccc(F)cc1 (stereo not drawn) | active: 11.2 µM | 
48 | COc1ccc(C)cc1S(=O)(=O)N(C)CC(=O)Nc1ccc2c(c1)OCO2 |  | inactive: -4.08%
